This is an account of results in ChEMBL document CHEMBL4888484, “Replenishing the malaria drug discovery pipeline: Screening and hit evaluation of the MMV Hit Generation Library 1 (HGL1) against asexual blood stage Plasmodium falciparum ,using a nano luciferase reporter read-out” (2022).

About 540 (0.36%) of roughly 150,000 compounds showed an effect of 50% or more. The list shows a part of the results.

This assay relates to Plasmodium falciparum. Put plainly: Primary screen in NF54 nanoGlo assay, in single point, at 2uM, 72h; a lower Z score goes with more inhibition. In kind it is functional, Erythrocyte. The conditions noted are these: timepoint 72 hour.
On to `CN(C)C[C@@H]1CN(c2ncccn2)C[C@H]1NC(=O)Cc1cccc(Cl)c1`, for which the “% Inhibition” value is given as -8% and the Z score came out at 1.23.
For `CC(C)(C)[C@@H]1NC(=O)CC[C@H]1NC(=O)[C@@H]1C[C@H]1c1ccc(Cl)cc1` the same measures were -11% and 0.92.
Regarding `CC(C)c1cnc(CNc2nc(-c3nccn3C)no2)s1`, the “% Inhibition” value was -12% and the Z score stood at 1.61.
For `O=C(C1CCCCC1c1nc2ccccc2s1)N1CCC(c2nc3ccccc3s2)CC1` (configuration not stated) the same measures were 0% and -0.07.
`COc1ccc(F)cc1S(=O)(=O)N1CCc2noc(N)c2C1`: the “% Inhibition” value was 72% and the Z score is recorded as -5.81.
For `Cc1nccc(C(=O)Nc2nc(-c3cc(C)c(F)cc3F)cs2)n1` the same measures were -5% and 1.02.
For the compound `COc1cccc(-c2noc(-c3cn(-c4ccc(C)c(C)c4)c(=O)c4ccccc34)n2)c1`, the “% Inhibition” value was -3% and the Z score is recorded as 0.48.
As for `Cc1oncc1C(=O)NC[C@H]1Cc2ccccc2CO1`, the “% Inhibition” value is on record as 3% and the Z score was -0.36.
The like results for `CCCS(=O)(=O)NCCn1ccc(-c2ccsc2)n1` were, in that order, -4% and 0.83.
On to `CC(=O)N[C@H]1[C@H](NS(=O)(=O)c2cccc3nn(C)nc23)[C@@H]2CCO[C@@H]21`, for which the “% Inhibition” value is -5% and the Z score was found to be 0.52.
For `O=C1C[C@H](N2CCN(C(c3ccccc3)c3ccccc3)CC2)C(=O)N1c1ccc(Oc2ccccc2)cc1` the same measures were -5% and 0.69.
The like results for `CCOCC(=O)N1CCN(C(=O)C2CCCC2)CC1` were, in that order, 0% and -0.04.
For `CCNC(=O)[C@@]1(OCc2cccc(C)c2)CC(OCc2ccccc2C#N)[C@@H]2OC(C)(C)O[C@@H]2C1` (some centres not stated) the same measures were -3% and 0.37.
With `CC(C)c1ccc(N(C)C(=O)[C@H](C)NC(=O)C(C)(C)C)cc1`, the “% Inhibition” value is -8% and the Z score is recorded as 1.25.
For `Cn1cccc1CN1C[C@@H](CO)[C@H](NC(=O)c2cccnc2)C1` the same measures were -7% and 1.32.
The like results for `COC[C@@](C)(O)CNC(=O)c1cc(C)oc1C` were, in that order, -6% and 0.91.
For the compound `COc1ccc2c(c1)CCc1cnc(-n3ncc(C(=O)NCc4ccccn4)c3C)nc1-2`, the “% Inhibition” value is on record as -4% and the Z score was 0.69.
For `O=C1NCCCc2[nH]c(-c3cc(-c4ccccc4Cl)on3)nc21` the same measures were -6% and 1.16.
In the case of `CS(=O)(=O)C1(c2ccc(C#N)cc2)CC1`, the “% Inhibition” value is given as -11% and the Z score was determined as 1.75.
The like results for `Cc1nc(Cc2noc([C@@H]3CCCc4ccccc43)n2)no1` were, in that order, -3% and 0.56.
For `CC[C@H]1OCC[C@@H]1NS(=O)(=O)c1cc(Br)c(F)cc1C` the same measures were -8% and 0.65.
For `CC(C)(C)n1nnc(CN2CCC[C@H](c3nc4c(s3)CCC4)C2)n1` the same measures were -3% and 0.61.
As for `CC(C)Oc1nccnc1N1CC[S@+]([O-])C(C)(C)C1`, the “% Inhibition” value is listed as -11% and the Z score stood at 1.29.
The like results for `OC(CN(CC1CCOC1)C1CC1)c1ccc(OC(F)(F)F)cc1` (configuration not stated) were, in that order, -1% and 0.1.
The like results for `Cc1noc(NC(=O)N2CCCCC[C@H]2c2ccccc2)n1` were, in that order, 0% and 0.03.
On to `N#Cc1cccnc1NCCCNc1ncccc1C#N`, for which the “% Inhibition” value is listed as -21% and the Z score stood at 1.88.
For `O=C(CS(=O)(=O)CC1CCCO1)N1CCCC(n2cccn2)C1` (configuration not stated), the “% Inhibition” value was -4% and the Z score stood at 0.36.
Regarding `COc1ccc(CCNC(=O)Cn2ncc(N(C)C)cc2=O)cc1`, the “% Inhibition” value was -18% and the Z score worked out at 2.67.
For `CO[C@H]1CS(=O)(=O)C[C@@H]1Nc1nc(C)nc(C)c1C` the same measures were -9% and 1.1.
For `CC(C)(C)n1ncc2c(Oc3ccc(-n4cncn4)cc3)ncnc21`, the “% Inhibition” value is -1% and the Z score is 0.12.
Turning to `COC(=O)[C@H](C)NCC(=O)Nc1ccc(F)cc1`, the “% Inhibition” value is reported as -41% and the Z score came out at 4.78.
As to `O=C(NCCCOCC1CC1)NC1CCCC2OCCC12` (configuration not stated), the “% Inhibition” value is -26% and the Z score turned out to be 3.07.
For `CC1CCC(N(CCC(=O)O)C[C@H]2CCCO2)CC1` (some centres not stated) the same measures were -23% and 2.3.
The like results for `CC(COC1CCOC1)Nc1ncncc1Br` (configuration not stated) were, in that order, 2% and -0.33.
The like results for `CC[C@H]1CC[C@@H](C)N(C(=O)c2n[nH]c3ccccc23)C1` were, in that order, -6% and 1.03.
As for `Cc1[nH]c2c(C)ccc(C)c2c1CC(=O)NCCN(C)S(C)(=O)=O`, the “% Inhibition” value is reported as -15% and the Z score was 2.51.
For `CCOC(=O)N1CCN(c2nc3ccc(C)cc3cc2CN[C@@H](C)COC)CC1` the same measures were -12% and 1.72.
In the case of `Nc1cc(N2CCO[C@H](c3nccs3)C2)c(Cl)cn1`, the “% Inhibition” value was 2% and the Z score is -0.37.
For `COc1ccccc1C1(c2nnc(-c3ccc(S(C)(=O)=O)cc3)o2)CCOCC1` the same measures were -8% and 1.51.
For `Cc1cc2nc(-c3cccc4ncccc34)[nH]c2cc1C` the same measures were -8% and 1.6.
The like results for `O=C(c1ccc2ccncc2c1)N1CCC[C@@H]1CO` were, in that order, -5% and 0.85.
`Cc1ccc(NC(=O)N[C@H](C(=O)OC(C)(C)C)C(C)C)cc1`: the “% Inhibition” value was -13% and the Z score came to 2.4.
The like results for `Cc1noc(C)c1CCC(=O)N1CCC[C@H](C(=O)c2ccc3c(c2)OCO3)C1` were, in that order, 4% and -0.59.
For `O=C(c1cnn(-c2ccc(F)cc2F)c1)N1CCC[C@@H]1CO`, the “% Inhibition” value is 1% and the Z score was -0.21.
For `Cn1ccc2c(OCC(=O)N3CCOCC3)cccc21` the same measures were -1% and 0.14.
For `CCn1cc(-c2n[nH]cc2Br)cn1` the same measures were -7% and 1.14.
As to `COC(=O)c1ncccc1OCc1coc(-c2c(F)cccc2F)n1`, the “% Inhibition” value is reported as -1% and the Z score is on record as 0.08.
The like results for `Cc1ccc(-c2nc3cccnc3s2)cc1NS(=O)(=O)c1ccc(Cl)s1` were, in that order, -3% and 0.6.
Turning to `Cc1ccc(NC(=O)N(CCC#N)C(C)C)cc1Cl`, the “% Inhibition” value was -5% and the Z score is given as 0.51.
The like results for `CCOC1CC(NC(=O)N2CCS(=O)(=O)C(C)C2C)C12CCCO2` (configuration not stated) were, in that order, -3% and 0.61.
For `COc1ccc(-n2nc(C)c3sc(N4CCC(NC(=O)C5CCC5)CC4)nc32)cc1` the same measures were -2% and 0.25.
As to `CN(C)S(=O)(=O)c1ccc(-c2noc(-c3ccnn3C)n2)cc1`, the “% Inhibition” value is -1% and the Z score came to 0.13.
For `Cn1cnnc1CNC(=O)c1cc2c(Cl)cccc2s1` the same measures were -15% and 2.76.
For `CN1C[C@@H](CNCc2ccnn2C)Cc2ccccc21` the same measures were -10% and 1.47.
For `O=C(c1c(F)cccc1F)N1CCN(c2cc(N3CCCC3)ncn2)CC1` the same measures were -11% and 1.22.
For `CCN(c1ccccc1)c1noc([C@H]2CC(=O)N(CC)[C@@H]2c2cnn(C)c2C)n1`, the “% Inhibition” value is -9% and the Z score was 1.44.
The like results for `COc1cccc(NC(=O)Cn2c(C)ncc(-c3nc(-c4ccccc4)cs3)c2=O)c1` were, in that order, -4% and 0.55.
For `CNC(=O)c1cc(S(=O)(=O)N2CC(Oc3cccc(C)c3)C2)cs1` the same measures were 4% and -0.66.
For `CCc1n[nH]c(C(=O)N2CC3CCCN3CC2CC)c1Br` (configuration not stated) the same measures were 29% and -1.03.
In the case of `Cc1cc(C#N)nc(NC2CCCCCC2)n1`, the “% Inhibition” value is reported as -4% and the Z score stood at 0.49.
For `COC(=O)CN[C@@H](C)C1CCOCC1` the same measures were -10% and 1.33.
For `O=C(NCCN1Cc2cc(Cl)ccc2OCC1=O)c1cnccn1` the same measures were -13% and 2.22.
The like results for `FC1(F)CC(COc2ncccn2)C1` were, in that order, 10% and -1.67.
As for `COC(=O)C1CCN(c2cc(=O)n(-c3ccccc3Cl)c(=O)[nH]2)CC1`, the “% Inhibition” value is on record as -12% and the Z score worked out at 2.34.
In the case of `CCCN1CCN(c2ncc3c(n2)CCN(Cc2ccc(C)c(C)c2)C3)CC1`, the “% Inhibition” value worked out at 0% and the Z score came out at 0.03.
The like results for `O=C(Nc1nnc(-c2c(F)cccc2Cl)s1)N1CC2CCC1CN2` (configuration not stated) were, in that order, -7% and 0.64.
For `Cc1nc(-c2cccc(NC(=O)C3CN(C(=O)COc4ccccc4F)C3)c2)cs1` the same measures were -2% and 0.34.
For `CCOC(=O)C(C)C(C)Nc1ncc(F)cn1` (configuration not stated), the “% Inhibition” value is -8% and the Z score is on record as 1.2.
With `Cc1ccc(C(=O)N2CC3(C[C@H](N4CCCC4)CO3)C2)s1`, the “% Inhibition” value is on record as -21% and the Z score was found to be 2.48.
For `COc1ccc(F)cc1-c1cc(-c2ccc[nH]2)nc(N)c1C#N` the same measures were 6% and -0.89.
Take `COc1cc(CNCc2ccc(C)cc2)cc(Cl)c1OCc1cccs1`: the “% Inhibition” value was -32% and the Z score amounted to 3.78.
Regarding `Cc1ccc(CN(c2ccc(C(=O)NC3CCN(C)CC3)cc2)S(C)(=O)=O)cc1`, the “% Inhibition” value is listed as 1% and the Z score was -0.19.
Turning to `CCN(CCNC(=O)C1CC1c1cccc(Cl)c1Cl)CC(F)F` (configuration not stated), the “% Inhibition” value came to 37% and the Z score is -4.14.
`CCC1=Nc2ccccc2N=C(NC(=O)C(C)C)[C@H]1c1ccc(F)cc1`: the “% Inhibition” value was 64% and the Z score was -2.85.
Take `CCc1cc(NCc2cc(=O)cc[nH]2)nc(CC)n1`: the “% Inhibition” value is recorded as -11% and the Z score is 2.04.
For `CN1CCN(CC(=O)Nc2nc(-c3ccc(Cl)cc3)cs2)CC1` the same measures were -18% and 2.6.
For `COc1ncc(NC(=O)Nc2cccc(C(F)(F)F)c2)c(N2CCCC2)n1` the same measures were 25% and -3.84.
For `CN1CCC(NC(=O)N2CCCCC2CCO)C1c1ccc(F)cc1` (configuration not stated) the same measures were -5% and 0.57.
`CC(C)CCn1ccc(NC(=O)N2CCCN(C)CC2)n1`: the “% Inhibition” value was -9% and the Z score came to 1.09.
For `Cc1ncoc1CNC(=O)[C@H]1CC(=O)N(C)[C@@H]1c1cccc(F)c1` the same measures were -9% and 1.26.
The like results for `c1ccc(-c2nc(CN3CCc4sccc4C3)cs2)nc1` were, in that order, -6% and 1.14.
The like results for `Cc1c(NC(=O)CCn2nnnc2C)c(N2CCCC2)nn1C` were, in that order, -9% and 1.83.
As to `CC(C)c1nnc(CN(C)c2ccc(F)c(F)c2)o1`, the “% Inhibition” value is recorded as -1% and the Z score is 0.15.
The like results for `Cc1ccc2oc(CN(Cc3cc(F)ccc3F)C(=O)C3C[C@@H]3c3ccccc3)nc2c1` (some centres not stated) were, in that order, 3% and -0.34.
The like results for `CCc1nn(C)c(Cl)c1CN1CCCC[C@H]1C(=O)NC` were, in that order, 13% and -1.24.
Turning to `N#Cc1cc(S(=O)(=O)NCC(F)(F)F)ccc1NCC1CC1`, the “% Inhibition” value turned out to be 0% and the Z score came out at 0.05.

As usually defined, the % Inhibition is the drop in the measured response relative to a control, in per cent.
